Results published in the supplement of paper PMC3334620.
In all, about 33,000 sequences were measured (“E-score (-0.5 to 0.5)”: median about -0.043, highest 2% from about 0.37 on). The list shows a part of the results.

Each sequence was assayed against T1, Upc2 (UniProt Q12151) (assay: PBM E-score (8-mer binding enrichment) (E-score (-0.5 to 0.5)); higher = stronger / more preferred TF binding; most listed sequences are background and not binding sites). Settings: protein concentration: 200 nM; construct: GST-full length.
T1 sequence: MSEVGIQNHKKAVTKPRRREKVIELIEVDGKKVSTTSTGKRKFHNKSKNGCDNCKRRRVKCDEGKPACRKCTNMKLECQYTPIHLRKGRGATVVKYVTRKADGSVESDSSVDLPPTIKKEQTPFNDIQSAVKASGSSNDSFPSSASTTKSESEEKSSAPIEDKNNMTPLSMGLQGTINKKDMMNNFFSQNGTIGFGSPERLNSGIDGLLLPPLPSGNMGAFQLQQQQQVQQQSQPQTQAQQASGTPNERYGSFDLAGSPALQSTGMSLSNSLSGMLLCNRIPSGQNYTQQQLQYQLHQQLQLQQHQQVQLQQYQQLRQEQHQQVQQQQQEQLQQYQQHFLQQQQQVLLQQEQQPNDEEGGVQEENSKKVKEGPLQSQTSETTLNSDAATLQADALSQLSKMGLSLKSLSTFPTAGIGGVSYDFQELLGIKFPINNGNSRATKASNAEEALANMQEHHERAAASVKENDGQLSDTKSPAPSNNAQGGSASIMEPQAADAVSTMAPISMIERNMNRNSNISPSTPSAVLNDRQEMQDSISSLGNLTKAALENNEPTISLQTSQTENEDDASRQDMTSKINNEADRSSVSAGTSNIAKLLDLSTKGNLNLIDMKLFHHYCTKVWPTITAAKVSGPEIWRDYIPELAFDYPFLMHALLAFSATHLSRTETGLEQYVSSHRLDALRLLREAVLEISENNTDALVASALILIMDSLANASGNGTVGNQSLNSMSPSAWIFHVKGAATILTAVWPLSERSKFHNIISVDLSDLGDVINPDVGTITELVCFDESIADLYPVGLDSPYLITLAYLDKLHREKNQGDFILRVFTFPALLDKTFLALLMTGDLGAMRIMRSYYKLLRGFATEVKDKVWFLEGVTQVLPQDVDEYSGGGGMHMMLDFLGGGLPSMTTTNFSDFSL
Summary of the method: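 Bound GST-tagged yeast transcription factors, applied at about 100-200 nM to double-stranded universal all-10-mer Agilent arrays, were detected with fluorescent anti-GST. Scans were normalised with masliner. A modified Wilcoxon-Mann-Whitney statistic, the E-score, was assigned to each ungapped eight-base word pooled with its reverse complement by the Universal PBM Analysis Suite.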

Sequence | PBM E-score
ATCGTGGA | -0.0423
GAAGCGAC | 0.154
AAGCCTAT | -0.0475
CTGCAGGC | -0.313
GCTAAACA | 0.0407
CTATGCCA | -0.28
GGTTATAA | -0.0491
CAACCACG | -0.0859
AACCAAGG | -0.0086
GCCTCAAA | -0.0241
AAAGGCGT | -0.0984
ATCCTAGG | -0.224
CCTACAGA | -0.0651
ACCCCGGT | 0.0534
CTGGAGCC | -0.258
AATGGGGT | -0.189
CGTAGTTC | 0.0119
GGTTAAAC | 0.232
GCCGAGGC | 0.0355
ATTTGGGC | -0.121
CGAGCACG | 0.171
AGCGAGAT | 0.282
CTTAAGGC | -0.0149
ATCGCTTC | 0.118
GCAAACCA | -0.0687

Sequence | PBM E-score
GACGTCTC | 0.177
GAGTGAAA | -0.0499
TCCAACCA | -0.223
ATCTAGGG | -0.0219
ATCGTGCC | -0.0436
CAGATCTC | -0.0487
AGGCTCCC | -0.306
ACCAAAAA | -0.00478
AACCAAAC | 0.171
AGCACACC | -0.182
ATTTAGGC | -0.097
CTGAGCAA | -0.0698
CCTTGCAC | 0.0659
ATCCATGA | -0.188
CAGGACCA | -0.227
CCGTGGCC | -0.206
CTGAAAAG | -0.0688
GAACGTTC | 0.281
GAGCGTAC | 0.23
ATTGCCAC | -0.191
AGCGATTA | 0.107
AGCCGAAG | -0.185
AGACTCCC | -0.27
TGCCTCAA | -0.256
ACCGCGGC | 0.094

Sequence | PBM E-score
CAACCTGC | -0.0219
ACTACCGC | -0.108
AAGGCTCG | 0.195
CCCTTCGG | -0.0969
AGACTCCT | -0.268
ATCTAGGC | -0.219
TCACGAAA | -0.0654
CGCCGGCC | -0.278
ACGCTTCG | 0.245
CACTCCAC | -0.0427
AAGCAAAG | -0.208
AGATGCCC | -0.0733
CTGTGTCA | -0.268
GCAGTAGA | -0.083
ACTTTCTG | -0.183
CGACGAAC | 0.151
CGCTTATA | 0.307
CGTCTTTC | -0.0479
CTCTCCAC | -0.291
ACGTTTCT | 0.0616
GCGAATGA | 0.144
AATCCAAC | -0.154
CACCTCTG | -0.232
ACGACCCT | 0.285
AGGTGGTA | -0.114

Sequence | PBM E-score
CCTATTAC | 0.1
CGCGATCA | 0.0471
CAAGGGTA | -0.127
CGATTGTA | 0.149
ATTGCCTC | -0.052
AACACACG | 0.0319
TGCACCAA | -0.247
TATGTTCA | 0.0762
AGGCTGCC | -0.0713
CATACACC | -0.0184
AACGTTGA | 0.0964
AGAGTTGC | -0.202
GGAAACAC | 0.105
ACGTGGCT | -0.0627
GCAAGGCA | -0.1
CTCGATTA | 0.305
CGGGCGTC | -0.0716
CGGAGAGC | -0.117
AGCTAAAT | 0.103
GAAAACTA | 0.147
ATATGGCC | -0.141
CACAGGCG | -0.208
AAGCCAAT | -0.0568
TAACAAAA | -0.0747
TCGTTGCA | 0.3

Sequence | PBM E-score
GGCCACAC | -0.253
ACATTGTA | 0.15
AATGCTTG | -0.147
TTGCTAAA | 0.0398
GTCCGCCA | -0.302
GCAGATGC | -0.0873
GCTCCCAA | 0.0061
AAACGTGA | 0.165
AGCAGTTG | -0.245
CATTTCAG | -0.128
GCCGCAGA | -0.0394
GCTCGCCA | 0.0791
ACTGGTAA | 0.113
CTAACAAC | -0.00702
ACGTATAG | 0.433
AACTTACC | 0.0713
GACTAAAA | -0.0441
AGTCCCTA | -0.261
GGGTCAAA | 0.115
ATGCGCAG | -0.0927
ATAGGATA | -0.0172
GTTTCCAA | 0.0283
CAAGCCTC | -0.0986
TTCAGAAA | -0.164
AACAGGCC | -0.219

Sequence | PBM E-score
ATGTAATG | -0.0645
CCAAACCC | -0.0175
CGGGGCGC | -0.0354
ACGGCGGG | 0.16
GGAGCAAA | -0.00615
CACGGAGA | -0.147
AACATGTT | -0.0112
CGGGCACA | -0.182
GCCGATAA | -0.223
CTCCAGGA | -0.192
CGACCGCC | 0.151
TAAAATCA | 0.0046
ACCTCAAT | -0.172
TAATTGGA | -0.00998
AAGTTTCG | 0.111
AAGTGATA | -0.0783
AGTACTTG | 0.101
CGAATATA | 0.125
CGATCAGA | 0.0644
AGAAACCG | 0.142
GTCTGATA | -0.0611
GCAGGGGC | -0.197
CGGATAAA | 0.337
CCCGACTA | 0.0186
TATTGGAA | -0.0664

Sequence | PBM E-score
ACTTTACA | 0.0242
AGGCTCGG | -0.0188
CAGCGCAC | -0.261
ATTGCCGG | 0.0399
CGCTCTAC | 0.0839
GCAATTTA | 0.148
AGAGTGCC | -0.209
CGGCGGAG | -0.113
CTAAGGGC | -0.21
TATGATAA | 0.0585
AAACGCAT | 0.177
TCGGGAAA | 0.147
GTCTAATA | 0.0467
ATAATCAA | -0.035
ATTTGACA | -0.0218
CCATCCGA | -0.0149
ATGCGGCA | -0.0824
GATCGCTA | 0.0586
GCACTGGA | -0.0891
AAAGTAGA | -0.0604
CTCGACGA | -0.0893
CCTGCTCG | 0.185
